Some of the results follow.
Experiments:
Test in all cases: glycan array binding signal (z-score within array); higher = stronger binding
Conditions in all cases: glycan notation: IUPAC condensed, linker removed
[1] = target: Gal(b1-3)GlcNAc(b1-6)GalNAc
In short: (§1)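 From the Consortium for Functional Glycomics database, 3228 arrays were curated, keeping only those whose protein sequence was available. Binding is given as a within-array Z-score averaged across arrays sharing a protein sequence and across linkers. Negative Z-scores can be read as non-binding.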

[2] = target: Gal(b1-3)GlcNAc(b1-6)[Gal(b1-3)]GalNAc
In short: as §1

Gal(b1-3)GlcNAc6S = target: Gal(b1-3)GlcNAc6S
In short: as §1

[3] = target: Gal(b1-3)[Fuc(a1-4)]GlcNAc
In short: as §1

[4] = target: Gal(b1-3)[Fuc(a1-4)]GlcNAc(b1-2)Man
In short: as §1

[5] = target: Gal(b1-3)[Fuc(a1-4)]GlcNAc(b1-2)Man(a1-3)[Gal(b1-3)[Fuc(a1-4)]GlcNAc(b1-2)Man(a1-6)]Man(b1-4)GlcNAc(b1-4)[Fuc(a1-6)]GlcNAc
In short: as §1

[6] = target: Gal(b1-3)[Fuc(a1-4)]GlcNAc(b1-3)Gal(b1-3)[Fuc(a1-4)]GlcNAc
In short: as §1

[7] = target: Gal(b1-3)[Fuc(a1-4)]GlcNAc(b1-3)Gal(b1-4)GlcNAc
In short: as §1

[8] = target: Gal(b1-3)[Fuc(a1-4)]GlcNAc(b1-3)Gal(b1-4)[Fuc(a1-3)]GlcNAc
In short: as §1

[9] = target: Gal(b1-3)[Fuc(a1-4)]GlcNAc(b1-6)GalNAc
In short: as §1

[10] = target: Gal(b1-3)[GlcNAc(b1-6)]GalNAc
In short: as §1

[11] = target: Gal(b1-3)[GlcNAc(b1-6)]GlcNAc
In short: as §1

[12] = target: Gal(b1-3)[Neu5Ac(a2-6)]GalNAc
In short: as §1

[13] = target: Gal(b1-3)[Neu5Ac(a2-6)]GlcNAc
In short: as §1

[14] = target: Gal(b1-3)[Neu5Ac(a2-6)]GlcNAc(a1-4)Gal(b1-4)Glc
In short: as §1

[15] = target: Gal(b1-3)[Neu5Ac(a2-6)]GlcNAc(b1-4)Gal(b1-4)Glc
In short: as §1

[16] = target: Gal(b1-3)[Neu5Ac(b2-6)]GalNAc
In short: as §1

[17] = target: Gal(b1-3)[Neu5Ac(b2-6)]GlcNAc
In short: as §1

Gal(b1-4)Gal = target: Gal(b1-4)Gal
In short: as §1

[18] = target: Gal(b1-4)GalNAc(a1-3)[Fuc(a1-2)]Gal(b1-4)GlcNAc
In short: as §1

[19] = target: Gal(b1-4)GalNAc(b1-3)[Fuc(a1-2)]Gal(b1-4)GlcNAc
In short: as §1

Gal(b1-4)Glc = target: Gal(b1-4)Glc
In short: as §1

Gal(b1-4)Glc6S = target: Gal(b1-4)Glc6S
In short: as §1

Gal(b1-4)GlcNAc = target: Gal(b1-4)GlcNAc
In short: as §1

[20] = target: Gal(b1-4)GlcNAc(a1-6)Gal(b1-4)GlcNAc
In short: as §1

Gal(b1-4)GlcNAc(b1-2)Man = target: Gal(b1-4)GlcNAc(b1-2)Man
In short: as §1

[21] = target: Gal(b1-4)GlcNAc(b1-2)Man(a1-3)Man(b1-4)GlcNAc(b1-4)GlcNAc
In short: as §1

[22] = target: Gal(b1-4)GlcNAc(b1-2)Man(a1-3)[Gal(b1-4)GlcNAc(b1-2)Man(a1-6)]Man(b1-4)GlcNAc(b1-4)GlcNAc
In short: as §1

[23] = target: Gal(b1-4)GlcNAc(b1-2)Man(a1-3)[Gal(b1-4)GlcNAc(b1-2)Man(a1-6)]Man(b1-4)GlcNAc(b1-4)[Fuc(a1-6)]GlcNAc
In short: as §1

[24] = target: Gal(b1-4)GlcNAc(b1-2)Man(a1-3)[Gal(b1-4)GlcNAc(b1-2)Man(a1-6)][Gal(b1-4)GlcNAc(b1-4)]Man(b1-4)GlcNAc(b1-4)[Fuc(a1-6)]GlcNAc
In short: as §1

[25] = target: Gal(b1-4)GlcNAc(b1-2)Man(a1-3)[Gal(b1-4)GlcNAc(b1-2)Man(a1-6)][GlcNAc(b1-4)]Man(b1-4)GlcNAc(b1-4)[Fuc(a1-6)]GlcNAc
In short: as §1

[26] = target: Gal(b1-4)GlcNAc(b1-2)Man(a1-3)[GlcNAc(b1-2)Man(a1-6)]Man(b1-4)GlcNAc(b1-4)GlcNAc
In short: as §1

[27] = target: Gal(b1-4)GlcNAc(b1-2)Man(a1-3)[GlcNAc(b1-4)][Gal(b1-4)GlcNAc(b1-2)Man(a1-6)]Man(b1-4)GlcNAc(b1-4)GlcNAc
In short: as §1

[28] = target: Gal(b1-4)GlcNAc(b1-2)Man(a1-3)[Man(a1-6)]Man(b1-4)GlcNAc(b1-4)GlcNAc
In short: as §1

[29] = target: Gal(b1-4)GlcNAc(b1-2)Man(a1-6)Man(b1-4)GlcNAc(b1-4)GlcNAc
In short: as §1

[30] = target: Gal(b1-4)GlcNAc(b1-2)Man(a1-6)[GlcNAc(b1-2)Man(a1-3)]Man(b1-4)GlcNAc(b1-4)GlcNAc
In short: as §1

[31] = target: Gal(b1-4)GlcNAc(b1-2)Man(a1-6)[Man(a1-3)]Man(b1-4)GlcNAc(b1-4)GlcNAc
In short: as §1

[32] = target: Gal(b1-4)GlcNAc(b1-2)[Gal(b1-4)GlcNAc(b1-4)]Man(a1-3)[Gal(b1-4)GlcNAc(b1-2)Man(a1-6)]Man(b1-4)GlcNAc(b1-4)GlcNAc
In short: as §1

[33] = target: Gal(b1-4)GlcNAc(b1-2)[Gal(b1-4)GlcNAc(b1-4)]Man(a1-3)[Gal(b1-4)GlcNAc(b1-2)[Gal(b1-4)GlcNAc(b1-6)]Man(a1-6)]Man(b1-4)GlcNAc(b1-4)GlcNAc
In short: as §1

[34] = target: Gal(b1-4)GlcNAc(b1-2)[Gal(b1-4)GlcNAc(b1-4)]Man(a1-3)[GlcNAc(b1-4)][Gal(b1-4)GlcNAc(b1-2)Man(a1-6)]Man(b1-4)GlcNAc(b1-4)GlcNAc
In short: as §1

[35] = target: Gal(b1-4)GlcNAc(b1-2)[Gal(b1-4)GlcNAc(b1-4)]Man(a1-3)[GlcNAc(b1-4)][Gal(b1-4)GlcNAc(b1-2)[Gal(b1-4)GlcNAc(b1-6)]Man(a1-6)]Man(b1-4)GlcNAc(b1-4)GlcNAc
In short: as §1

[36] = target: Gal(b1-4)GlcNAc(b1-2)[Gal(b1-4)GlcNAc(b1-6)]Man(a1-6)[Gal(b1-4)GlcNAc(b1-2)Man(a1-3)]Man(b1-4)GlcNAc(b1-4)GlcNAc
In short: as §1

[37] = target: Gal(b1-4)GlcNAc(b1-2)[Gal(b1-4)GlcNAc(b1-6)]Man(a1-6)[Gal(b1-4)GlcNAc(b1-2)Man(a1-3)]Man(b1-4)GlcNAc(b1-4)[Fuc(a1-6)]GlcNAc
In short: as §1

[38] = target: Gal(b1-4)GlcNAc(b1-2)[Gal(b1-4)GlcNAc(b1-6)]Man(a1-6)[GlcNAc(b1-4)][Gal(b1-4)GlcNAc(b1-2)Man(a1-3)]Man(b1-4)GlcNAc(b1-4)GlcNAc
In short: as §1

[39] = target: Gal(b1-4)GlcNAc(b1-2)[Gal(b1-4)GlcNAc(b1-6)]Man(a1-6)[GlcNAc(b1-4)][Gal(b1-4)GlcNAc(b1-2)[Gal(b1-4)GlcNAc(b1-4)]Man(a1-3)]Man(b1-4)GlcNAc(b1-4)[Fuc(a1-6)]GlcNAc
In short: as §1

B1: OVGAL11 (Ovis aries), AAF64320 (protein)
chain: MDSLPNPYLQSVSLTVCYMVKIKANLLSAFGKNPELQVDFGTGTGQGGNIPFRFWYCDGMVVMNTFTDGSWQKEEKVLTDAFVPGQPFELQFLVLEKEYQVFVKNKPICQFAHRLPLQSVKMLDVRGDIVLTSVDTL
- glycan array binding signal (z-score) [1]: -0.108
- glycan array binding signal (z-score) [2]: -0.119
- glycan array binding signal (z-score) (Gal(b1-3)GlcNAc6S): -0.107
- glycan array binding signal (z-score) [3]: -0.207
- glycan array binding signal (z-score) [4]: -0.128
- glycan array binding signal (z-score) [5]: -0.037
- glycan array binding signal (z-score) [6]: -0.101
- glycan array binding signal (z-score) [7]: 0.252
- glycan array binding signal (z-score) [8]: -0.07
- glycan array binding signal (z-score) [9]: -0.005
- glycan array binding signal (z-score) [10]: -0.224
- glycan array binding signal (z-score) [11]: -0.523
- glycan array binding signal (z-score) [12]: -0.076
- glycan array binding signal (z-score) [13]: -0.295
- glycan array binding signal (z-score) [14]: -0.608
- glycan array binding signal (z-score) [15]: -0.08
- glycan array binding signal (z-score) [16]: -0.098
- glycan array binding signal (z-score) [17]: -0.253
- glycan array binding signal (z-score) (Gal(b1-4)Gal): -0.059
- glycan array binding signal (z-score) [18]: -0.339
- glycan array binding signal (z-score) [19]: -0.056
- glycan array binding signal (z-score) (Gal(b1-4)Glc): -0.271
- glycan array binding signal (z-score) (Gal(b1-4)Glc6S): -0.046
- glycan array binding signal (z-score) (Gal(b1-4)GlcNAc): -0.07
- glycan array binding signal (z-score) [20]: -0.084
- glycan array binding signal (z-score) (Gal(b1-4)GlcNAc(b1-2)Man): -0.12
- glycan array binding signal (z-score) [21]: -0.101
- glycan array binding signal (z-score) [22]: -0.186
- glycan array binding signal (z-score) [23]: -0.113
- glycan array binding signal (z-score) [24]: -0.011
- glycan array binding signal (z-score) [25]: -0.081
- glycan array binding signal (z-score) [26]: -0.058
- glycan array binding signal (z-score) [27]: -0.112
- glycan array binding signal (z-score) [28]: -0.086
- glycan array binding signal (z-score) [29]: -0.102
- glycan array binding signal (z-score) [30]: -0.094
- glycan array binding signal (z-score) [31]: -0.045
- glycan array binding signal (z-score) [32]: -0.109
- glycan array binding signal (z-score) [33]: -0.093
- glycan array binding signal (z-score) [34]: -0.113
- glycan array binding signal (z-score) [35]: -0.051
- glycan array binding signal (z-score) [36]: -0.065
- glycan array binding signal (z-score) [37]: -0.063
- glycan array binding signal (z-score) [38]: -0.095
- glycan array binding signal (z-score) [39]: -0.113

— the supplement of paper PMC8728848
